Consider 16 sequences from publication PMC4081100.

Only a part is listed here, and it is no random draw. For part of these data: At the low end of the ranking the order means little. The list shows a part of the results. For part of these data: The exact form of the protein is not confirmed.

Experiment in all cases: universal protein binding microarray (PBM)
Holding throughout (conditions): transcription factors of Arabidopsis thaliana; high values mean tight binding; most listed sequences are background and not binding sites; double strand, one strand shown

In one experiment the target is GST-NTL6(1-168) (UniProt Q9SCK6).
The target of another experiment is T1, GST-ANAC019 NAC domain (UniProt Q9C932).
T1 sequence: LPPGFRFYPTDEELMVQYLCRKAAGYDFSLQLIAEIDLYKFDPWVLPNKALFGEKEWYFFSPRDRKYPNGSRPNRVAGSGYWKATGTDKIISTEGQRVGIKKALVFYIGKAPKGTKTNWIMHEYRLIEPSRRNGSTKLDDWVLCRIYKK

For a further experiment, the target named is T2, GST-ANAC055(1-171) (UniProt Q9LDY8).
T2 sequence: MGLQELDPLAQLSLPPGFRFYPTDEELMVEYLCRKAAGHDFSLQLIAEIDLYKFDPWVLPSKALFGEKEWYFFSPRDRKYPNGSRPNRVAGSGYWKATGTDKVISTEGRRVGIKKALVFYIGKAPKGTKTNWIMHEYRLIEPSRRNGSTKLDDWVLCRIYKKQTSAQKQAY

A further experiment deals with T3, GST-NAP(1-166) (UniProt O49255).
T3 sequence: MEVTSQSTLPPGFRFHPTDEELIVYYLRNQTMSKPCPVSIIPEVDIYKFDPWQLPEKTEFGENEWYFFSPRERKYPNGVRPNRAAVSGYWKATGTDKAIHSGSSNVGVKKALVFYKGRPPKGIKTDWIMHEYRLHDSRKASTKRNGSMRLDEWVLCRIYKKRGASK

A further experiment deals with T4, GST-NST2(1-184) (UniProt Q9M274).
T4 sequence: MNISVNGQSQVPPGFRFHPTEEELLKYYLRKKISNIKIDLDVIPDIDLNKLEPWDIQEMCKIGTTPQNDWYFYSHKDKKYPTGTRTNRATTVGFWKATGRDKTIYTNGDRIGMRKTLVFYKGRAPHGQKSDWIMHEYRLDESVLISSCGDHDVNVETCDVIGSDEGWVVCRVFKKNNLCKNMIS

Another experiment has as its target T5, GST-NTL8 NAC domain (UniProt Q9XIN7).
T5 sequence: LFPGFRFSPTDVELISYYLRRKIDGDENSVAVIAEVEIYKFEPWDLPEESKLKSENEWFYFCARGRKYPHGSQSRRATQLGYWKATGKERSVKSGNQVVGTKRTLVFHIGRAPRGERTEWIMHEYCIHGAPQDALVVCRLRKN

The next experiment deals with T6, GST-VND3 NAC domain (UniProt Q9FH59).
T6 sequence: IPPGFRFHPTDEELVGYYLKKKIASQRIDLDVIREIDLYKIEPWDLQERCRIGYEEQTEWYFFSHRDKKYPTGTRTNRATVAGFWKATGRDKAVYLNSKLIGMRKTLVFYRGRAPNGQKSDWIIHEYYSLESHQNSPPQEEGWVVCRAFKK

The target in the next experiment is T7, GST-VND7 NAC domain (UniProt Q9C8W9).
T7 sequence: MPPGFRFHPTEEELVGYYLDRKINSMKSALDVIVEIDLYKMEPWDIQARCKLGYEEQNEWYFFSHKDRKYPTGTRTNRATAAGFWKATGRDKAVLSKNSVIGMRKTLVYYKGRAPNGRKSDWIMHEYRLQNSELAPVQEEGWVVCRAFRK

For experiment [1], the target named is T8, GST-VOZ2 (Arabidopsis thaliana) (UniProt Q9SLB9).
T8 sequence: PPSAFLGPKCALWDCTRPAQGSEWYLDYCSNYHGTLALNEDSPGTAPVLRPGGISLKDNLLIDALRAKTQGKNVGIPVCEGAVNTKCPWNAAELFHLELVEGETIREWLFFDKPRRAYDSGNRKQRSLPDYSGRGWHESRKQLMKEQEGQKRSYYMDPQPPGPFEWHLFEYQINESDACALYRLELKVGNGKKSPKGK

For a further experiment, the target named is T9, GST-ANAC092(1-176) (UniProt Q9FKA0).
T9 sequence: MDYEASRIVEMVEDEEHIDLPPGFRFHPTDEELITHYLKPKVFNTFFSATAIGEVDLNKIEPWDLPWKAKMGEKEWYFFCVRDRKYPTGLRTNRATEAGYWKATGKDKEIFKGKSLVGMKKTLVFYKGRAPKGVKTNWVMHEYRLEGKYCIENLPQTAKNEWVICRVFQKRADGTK

For the next experiment, the target named is T10, GST-ATAF1 NAC domain (UniProt Q39013).
T10 sequence: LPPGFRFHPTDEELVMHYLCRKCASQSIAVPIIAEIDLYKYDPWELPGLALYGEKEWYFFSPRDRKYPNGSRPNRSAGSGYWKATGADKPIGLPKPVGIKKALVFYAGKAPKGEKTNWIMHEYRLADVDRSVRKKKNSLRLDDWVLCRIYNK

Experiment [2] has as its target T11, GST-ANAC092(1-285) full length (UniProt Q9FKA0).
T11 sequence: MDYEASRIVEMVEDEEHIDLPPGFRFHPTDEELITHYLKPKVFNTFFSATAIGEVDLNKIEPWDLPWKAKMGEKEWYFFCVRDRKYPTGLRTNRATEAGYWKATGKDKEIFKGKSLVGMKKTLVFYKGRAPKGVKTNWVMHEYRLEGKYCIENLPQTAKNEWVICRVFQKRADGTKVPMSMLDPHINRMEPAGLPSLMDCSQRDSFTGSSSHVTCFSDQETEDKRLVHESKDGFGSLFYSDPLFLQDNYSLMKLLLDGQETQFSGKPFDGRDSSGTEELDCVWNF

The next experiment concerns the target GST-WRKY1(266-371) (UniProt Q9SI37).

As for GTCAAGAA, the binding signal with GST-NTL6(1-168) was -0.0322 E-score; in the experiment with GST-ANAC019 NAC domain, 0.0464 E-score; in the experiment with GST-ANAC055(1-171), 0.0615 E-score; in the experiment with GST-NAP(1-166) it was 0.0595 E-score; with GST-NST2(1-184), 0.0986 E-score; in the experiment with GST-NTL8 NAC domain, 0.0297 E-score. The binding signal with GST-VND3 NAC domain is 0.00283 E-score; with GST-VND7 NAC domain, -0.0145 E-score; in experiment [1] it was -0.116 E-score.
With GTCAACAA, the binding signal in the experiment with GST-ANAC092(1-176) was 0.0173 E-score; in the experiment with GST-ANAC019 NAC domain it was -0.0462 E-score; in the experiment with GST-ATAF1 NAC domain it was 0.191 E-score; with GST-NTL8 NAC domain, 0.0573 E-score; with GST-VND3 NAC domain it was 0.0416 E-score; with GST-VND7 NAC domain, 0.07 E-score. Besides, the binding signal in experiment [1] came out at 0.0956 E-score.
With CTTGACCC, the binding signal with GST-ANAC092(1-176) was -0.0425 E-score; with GST-NTL6(1-168), -0.137 E-score; with GST-ANAC019 NAC domain it was 0.00348 E-score; in the experiment with GST-ANAC055(1-171), -0.245 E-score; in the experiment with GST-ATAF1 NAC domain it was -0.176 E-score; in experiment [2] it was -0.01 E-score. Also, the binding signal with GST-NAP(1-166) is -0.053 E-score; with GST-NST2(1-184) it was -0.0426 E-score; with GST-NTL8 NAC domain, 0.0908 E-score; with GST-VND3 NAC domain it was -0.145 E-score; with GST-VND7 NAC domain, -0.0117 E-score; in experiment [1], -0.0232 E-score.
Take GAGTTGAC: the binding signal was -0.0146 E-score with GST-ANAC092(1-176); 0.0243 E-score with GST-NTL6(1-168); 0.0811 E-score with GST-ANAC019 NAC domain; 0.0004 E-score with GST-ANAC055(1-171); 0.0457 E-score in the experiment with GST-ATAF1 NAC domain; -0.0154 E-score in experiment [2]. Moreover, the binding signal with GST-NAP(1-166) is -0.0315 E-score; with GST-NTL8 NAC domain, -0.159 E-score; with GST-VND3 NAC domain, 0.0477 E-score; with GST-VND7 NAC domain, 4e-05 E-score; in [1], -0.0732 E-score.
For the sequence GAACACGC, the binding signal in the experiment with GST-ANAC092(1-176) was 0.382 E-score; with GST-NTL8 NAC domain, -0.0779 E-score; with GST-VND3 NAC domain, 0.138 E-score; in experiment [1] it was -0.0491 E-score; with GST-WRKY1(266-371), -0.145 E-score.
For AAGGTCAA, the binding signal with GST-ANAC019 NAC domain is -0.106 E-score; in the experiment with GST-NAP(1-166), 0.0384 E-score; in the experiment with GST-VND3 NAC domain it was 0.101 E-score; with GST-VND7 NAC domain it was -0.00418 E-score; in [1] it was 0.126 E-score.
For the sequence AACGTAAA, the binding signal with GST-ANAC019 NAC domain was 0.175 E-score; in the experiment with GST-ATAF1 NAC domain, 0.298 E-score; with GST-NTL8 NAC domain, -0.0122 E-score; in the experiment with GST-VND3 NAC domain, 0.252 E-score; in the experiment with GST-VND7 NAC domain it was 0.248 E-score; in experiment [1], 0.0719 E-score.
With ACGGAACA, the binding signal with GST-ANAC092(1-176) amounted to 0.224 E-score; with GST-NTL6(1-168) it was 0.0301 E-score; with GST-ANAC019 NAC domain, 0.418 E-score; with GST-NTL8 NAC domain, 0.00676 E-score; in the experiment with GST-VND3 NAC domain it was 0.352 E-score; in [1] it was 0.03 E-score. The sequence also yielded a binding signal with GST-WRKY1(266-371) of 0.0155 E-score.
As for AAACCCTC, the binding signal with GST-ANAC092(1-176) was -0.0213 E-score; in the experiment with GST-NTL6(1-168), 0.141 E-score; with GST-ANAC019 NAC domain, 0.0591 E-score; with GST-ATAF1 NAC domain, -0.0405 E-score; in experiment [2] it was -0.0104 E-score; with GST-NST2(1-184), 0.0187 E-score. Further, the binding signal with GST-NTL8 NAC domain is 0.414 E-score; with GST-VND3 NAC domain, 0.0462 E-score; in experiment [1], 0.0661 E-score; with GST-WRKY1(266-371), -0.117 E-score.
For GCGTCAAA, the binding signal is 0.0197 E-score in the experiment with GST-ANAC092(1-176); -0.0227 E-score in the experiment with GST-NTL6(1-168); -0.0785 E-score with GST-ANAC019 NAC domain; -0.0567 E-score with GST-ANAC055(1-171); -0.00573 E-score with GST-ATAF1 NAC domain; -0.129 E-score with GST-NAP(1-166). In addition, the binding signal with GST-NST2(1-184) was 0.052 E-score; with GST-VND3 NAC domain it was -0.0309 E-score; in experiment [1], 0.107 E-score; with GST-WRKY1(266-371), 0.409 E-score.
For CCCTCCCC, the binding signal with GST-ANAC055(1-171) is -0.0139 E-score; in the experiment with GST-NAP(1-166), -0.0307 E-score; with GST-NST2(1-184), 0.169 E-score; with GST-VND3 NAC domain, -0.0225 E-score; with GST-VND7 NAC domain it was 0.198 E-score; in [1], 0.399 E-score.
Regarding AGGAAACG, the binding signal turned out to be 0.207 E-score with GST-ANAC092(1-176); 0.149 E-score with GST-ANAC055(1-171); 0.132 E-score in [2]; 0.451 E-score with GST-NTL8 NAC domain; 0.109 E-score in the experiment with GST-VND3 NAC domain; 0.0106 E-score in experiment [1]. In the experiment with GST-WRKY1(266-371), this sequence came in with a binding signal of -0.0447 E-score.
With ATAGCGTA, the binding signal was 0.437 E-score in the experiment with GST-ANAC092(1-176); -0.0295 E-score with GST-ANAC019 NAC domain; 0.136 E-score in the experiment with GST-ANAC055(1-171); 0.128 E-score in the experiment with GST-NAP(1-166); 0.355 E-score with GST-NST2(1-184); -0.0375 E-score in the experiment with GST-NTL8 NAC domain. In addition, the binding signal with GST-VND3 NAC domain was 0.137 E-score; in experiment [1], 0.216 E-score; in the experiment with GST-WRKY1(266-371) it was 0.00878 E-score.
Consider GAGGGTAA, for which the binding signal with GST-ANAC092(1-176) was 0.0757 E-score; in the experiment with GST-ANAC019 NAC domain, 0.0157 E-score; in the experiment with GST-NAP(1-166) it was 0.0116 E-score; with GST-VND3 NAC domain, -0.0215 E-score; in experiment [1] it was 0.221 E-score; with GST-WRKY1(266-371) it was -0.111 E-score.
Regarding TATCGTAA, the binding signal with GST-NTL6(1-168) is 0.146 E-score; with GST-ANAC019 NAC domain, -0.0971 E-score; with GST-ATAF1 NAC domain, 0.188 E-score; in experiment [2], 0.337 E-score; with GST-NTL8 NAC domain, -0.142 E-score; in the experiment with GST-VND3 NAC domain, 0.143 E-score. The binding signal was 0.136 E-score in [1] and -0.0776 E-score with GST-WRKY1(266-371).
In the case of CTAGCGTA, the binding signal with GST-NTL6(1-168) was -0.11 E-score; with GST-ANAC019 NAC domain it was 0.0321 E-score; with GST-ATAF1 NAC domain, 0.0437 E-score; in experiment [2] it was 0.398 E-score; in the experiment with GST-NTL8 NAC domain it was -0.0396 E-score; with GST-VND3 NAC domain, 0.0384 E-score. Also, the binding signal in experiment [1] was 0.0593 E-score; with GST-WRKY1(266-371), -0.0942 E-score.
